Results as given in PubChem BioAssay AID624296 (National Center for Advancing Translational Sciences (NCATS), 2012).
The campaign covered roughly 350,000 compounds. About 9,900 (2.8%) were called active. Inconclusive means that the source gave no clear call. Such entries were picked first, then a sample of the others. Calls come from the whole dose curve; as a rule, active = well fitted activation curve with a large enough effect; inconclusive = small, poorly fitted or top-dose-only effect; inactive = no such curve, though single readings can be large or run the other way. Potencies of inconclusive entries are left out as doubtful fits.
Potency is the fitted concentration of half-maximal effect; tags give direction and shape of the fitted curve.

Assay: A quantitative high throughput screen for small molecules that induce DNA re-replication in MCF 10a normal breast cells. For activity, positive = re-replication: % of control where 0% means no effect. Note: nearly all actives have a fitted effect of over 50% in size.
Conditions: MCF 10A DNA re-replication, Hoechst nuclear intensity, 48 h; activity, positive = re-replication: at 46.1 µM (top of the series)
With `Cc1ccc(NC(=O)CC2S/C(=N/c3nccs3)N(C)C2=O)cc1C` (centres undefined) the Potency was inconclusive [activator, single point]. For `O=C(O)C1OC(C(=O)O)C(C(=O)O)C1C(=O)O` (centres undefined), the “activity, positive = re-replication” value was inactive: 0.192%. With `CCOC(=O)c1c(CS(=O)(=O)c2ccccc2)n(C)c2cc(Br)c(O)cc12` the Potency was inconclusive [activator, partial curve, poor fit]. In the case of `CCC(C)(C)NC(=O)CN(Cc1ccc2c(c1)OCO2)C(=O)CCC(=O)Nc1ccccn1`, the “activity, positive = re-replication” value was inactive: -2.01%. In the case of `O=c1[nH]c2ccc(Cl)cc2c(-c2ccccc2)c1N1CCN(CCO)CC1`, the “activity, positive = re-replication” value was inactive: 23.9%. For `COc1ccc(N2C(=O)C(Cl)=C(Oc3cccc(OC)c3)C2=O)cc1`, the “activity, positive = re-replication” value was inactive: 3.28%. For `CCOC(=O)C1=C(C)NC2=C(C(=O)c3ccccc32)C1c1cccnc1` (centres undefined), the Potency was inconclusive [activator, partial curve]. For `COc1cccc(NC(=O)CN(C)C(=O)c2ccccc2Sc2ccccc2C#N)c1`, the Potency was inconclusive [activator, partial curve, poor fit]. With `COc1ccc(-c2cc(=O)oc3cc(OCC(=O)NCCCn4ccnc4)ccc23)cc1` the Potency was inconclusive [activator, full curve, poor fit]. With `O=C(c1ccc(COc2ccccc2Br)o1)N1N=C(C(F)F)CC1(O)C(F)F` (centres undefined) the Potency was inconclusive [activator, single point]. With `CCn1cc(C(=O)NCc2ccc3c(c2)OCO3)c(=O)c2cc(F)c(N3CCN(C(=O)c4ccco4)CC3)cc21` the Potency was inconclusive [activator, single point]. For `COc1ccc(OC)c(-c2csc(N(CC3CCCO3)C(=O)C3CCCCC3)n2)c1` (centres undefined), the “activity, positive = re-replication” value was inactive: 15.9%. For `O=C(Nc1nccs1)c1ccc2c(=O)n3c(nc2c1)CCCCC3`, the Potency was inconclusive [activator, single point]. For `CCc1ccc(N=C2NC(=O)/C(=C/c3cc(OC)c(O)c(OC)c3)S2)cc1`, the Potency was inconclusive [activator, single point]. In the case of `O=C(NC(=S)Nc1ccccc1N1CCCCC1)c1ccccc1`, the Potency was inconclusive [activator, single point]. In the case of `C=CCNC(=S)NNC(=O)c1ccc(=O)n(Cc2ccc(Cl)cc2Cl)c1`, the Potency was inconclusive [activator, single point]. For `CS(=O)(=O)c1ncc(Cl)c(C(=O)Nc2ccc(OC(F)F)cc2)n1`, the Potency was active: 5.17 µM. For `CCOC(=O)/C=C1\SC(C)C(=O)N1CC(=O)N(CCC#N)c1ccccc1` (centres undefined), the “activity, positive = re-replication” value was inactive: -2.6%. For `c1ccc(Cn2nnc3c(N4CCN(Cc5ccc6c(c5)OCO6)CC4)ncnc32)cc1`, the Potency was inconclusive [activator, single point]. For `CCOc1ccc(N2C(=O)C(=O)/C(=C(/O)c3ccccc3)C2c2ccccc2[N+](=O)[O-])cc1` (centres undefined), the Potency was inconclusive [activator, single point]. With `COc1ccc(-c2noc(-c3ccccc3C(=O)Nc3cccnc3)n2)cc1` the Potency was inconclusive [activator, partial curve, poor fit]. With `O=C1C2C3C=CC(C4CC34)C2C(=O)N1c1nccs1` (centres undefined) the Potency was inconclusive [activator, single point]. For `O=c1oc2ccccc2c(Nc2ccc3ccccc3c2)c1[N+](=O)[O-]`, the Potency was inconclusive [activator, partial curve]. In the case of `CC(=O)Nc1ccc(NC(=O)c2c([N+](=O)[O-])c(C(C)(C)C)nn2C)cc1`, the Potency was inconclusive [activator, single point]. With `O=C(c1sccc1Br)N1CCN(Cc2ccc3c(c2)OCO3)CC1` the “activity, positive = re-replication” value was inactive: 8.67%. For `COc1cc(/C=C/C(=O)OCC(=O)Nc2ccc(S(=O)(=O)N3CCCC3)cc2)ccc1O`, the Potency was inconclusive [activator, partial curve, poor fit]. For `COc1ccc(C(CCNCc2ccc(F)cc2)c2ccc(F)cc2)cc1` (centres undefined), the Potency was active: 5.17 µM. For `O=C(CSc1nnc(SCc2ccc(Cl)cc2)s1)c1ccc2c(c1)OCO2`, the Potency was inconclusive [activator, single point]. For `O=C(NCc1ccccc1)c1nc(S(=O)(=O)Cc2ccccc2)ncc1Cl`, the Potency was inconclusive [activator, partial curve, poor fit]. With `CCCCNCCCOc1cccc(Cl)c1Cl` the Potency was inconclusive [activator, partial curve, poor fit]. For `O=C(c1cccc(S(=O)(=O)N2CCN(c3ccc(F)cc3)CC2)c1)N1CCCC(C(F)(F)F)C1` (centres undefined), the “activity, positive = re-replication” value was inactive: 5.23%. With `CCN(CC(=O)Nc1cc(Cl)ccc1C)C(=O)C1CC(=O)N(Cc2ccccc2)C1` (centres undefined) the Potency was inconclusive [activator, partial curve, poor fit]. In the case of `COc1ccccc1C(=O)NC(=O)CSc1nnc(SC)s1`, the “activity, positive = re-replication” value was inactive: -2.64%. For `CCCCCCCCCC(=O)N1c2ccccc2NC(=O)C1CC(=O)Nc1ccc(C(=O)O)cc1` (centres undefined), the Potency was inconclusive [activator, single point]. With `CCN(C(=O)N(CC)c1ccccc1)c1ccccc1` the Potency was inconclusive [activator, partial curve, poor fit]. For `CCNC(=O)COc1ccc(/C=C2\COc3ccccc3C2=O)cc1OC`, the Potency was inconclusive [activator, partial curve, poor fit]. For `O=C(Nc1cccnc1)c1ccccc1-c1ccccc1`, the Potency was inconclusive [activator, single point]. With `c1csc(CNc2ncnc3ccc(-c4ccc5c(c4)OCCO5)cc23)c1` the Potency was inconclusive [activator, single point]. In the case of `CC1(C)CC(=O)C(Sc2nnc(-c3ccc(NS(C)(=O)=O)cc3)n2Cc2ccco2)C(=O)C1`, the Potency was inconclusive [activator, single point]. With `CCCCC(=O)NC(=S)Nc1ccccc1N1CCCCC1` the Potency was inconclusive [activator, single point]. With `C=C1C(=O)O[C@H]2[C@H]1[C@H](OC(=O)/C(C)=C\C)C[C@]1(CO1)[C@@H]1[C@H](OC(C)=O)C=C(C)[C@]21O` the Potency was active: 3.26 µM. With `Cc1ccc(-n2ncc3c(=O)[nH]c(SCC(=O)N4CCN(c5ccccc5)CC4)nc32)cc1` the Potency was inconclusive [activator, single point]. With `CC(C)C(=O)Nc1cccc(NC(=S)NC(=O)C(c2ccccc2)c2ccccc2)c1` the Potency was inconclusive [activator, single point]. For `COc1cccc(CN2CCNC(=O)C2CC(=O)NCC2CCOCC2)c1` (centres undefined), the “activity, positive = re-replication” value was inactive: 0.712%. With `CC1Cc2ccccc2N1S(=O)(=O)c1cccc(C(=O)N2CC(=O)Nc3ccccc32)c1` (centres undefined) the Potency was inconclusive [activator, partial curve, poor fit]. For `O=C(Nc1ccc(S(=O)(=O)N2CCCc3ccccc32)cc1)C1CCCO1` (centres undefined), the “activity, positive = re-replication” value was inactive: 2.14%. With `Cc1[nH]c2ccccc2c1C(=O)C(=O)NCc1ccco1` the “activity, positive = re-replication” value was inactive: -0.494%. In the case of `CCOC(=O)c1c(NC2OC(=O)c3c2ccc(OC)c3OC)sc(C(=O)OC(C)(C)C)c1C` (centres undefined), the Potency was inconclusive [activator, partial curve, poor fit]. In the case of `COC(=O)c1ccc(NC(=O)CCC(=O)c2ccc(F)cc2)cc1`, the “activity, positive = re-replication” value was inactive: 0.17%. For `Cc1ccc(C(C(=O)NCC2CCCO2)N(C(=O)c2snc(C(N)=O)c2N)c2ccc(C(C)C)cc2)o1` (centres undefined), the Potency was inconclusive [activator, partial curve, poor fit]. For `Cn1c(/C=C/c2cccc([N+](=O)[O-])c2)c([N+](=O)[O-])c(=O)n(C)c1=O`, the Potency was inconclusive [activator, single point]. For `COc1ccccc1NC(=O)Nc1ccccc1C#N`, the Potency was inconclusive [activator, partial curve, poor fit]. For `CC[C@]12c3[nH]c4cc(CCC(=O)N(C)C)ccc4c3CCN1C(=O)[C@@H](CC(=O)NCCC1=CCCCC1)C[C@@H]2C(=O)N1CCN(C(=O)C2CC2)CC1`, the Potency was inconclusive [activator, full curve, poor fit]. For `Cc1cc(=O)[nH]c(N/N=C/c2c(C)nn(-c3ccccc3)c2C)n1`, the Potency was inconclusive [activator, single point]. For `COC(=O)c1sc2cc(C(F)(F)F)cnc2c1-c1cccnc1`, the Potency was inconclusive [activator, single point]. In the case of `O=C(NNC(=O)c1ccc(Cl)cc1Cl)c1csc(-c2cccnc2)n1`, the “activity, positive = re-replication” value was inactive: 19.8%. In the case of `O=C(CSC1=NNC(c2ccccn2)S1)Nc1cccc(Cl)c1` (centres undefined), the Potency was inconclusive [activator, partial curve, poor fit]. For `Cc1cc(C(=O)N/N=C/c2ccc([N+](=O)[O-])o2)c(C)o1`, the “activity, positive = re-replication” value was inactive: 5.12%. In the case of `Cc1ccsc1/C=C/c1ccc2cccc(O)c2n1`, the Potency was inconclusive [activator, single point]. With `Cc1ccccc1Cc1c(C)nc2c(C(=O)NCc3ccco3)cnn2c1C` the Potency was inconclusive [activator, single point]. For `COC(=O)c1ccc(S(=O)(=O)c2ccc(Cl)cc2)c(N)c1`, the Potency was inconclusive [activator, partial curve, poor fit]. In the case of `O=C(Nc1ccc(N2CCN(C(=O)c3ccccc3)CC2)cc1)c1ccc2c(c1)OCO2`, the Potency was inconclusive [activator, full curve]. With `COC(=O)c1ccccc1NC(=O)CSc1nc2ccccc2c(=O)[nH]1` the “activity, positive = re-replication” value was inactive: 4.31%. For `COc1cccc(C(=O)COc2ccc(NC(=O)c3cccs3)cc2)c1`, the Potency was inconclusive [activator, single point].
